The values below come from patent US20240024475A1 (CURE GENETICS, published 2024).

Where two headings read alike, the source gives them in different places.

Test [1] has as its target T1, CD70 on kidney cancer cell line 786-0 (expressing CD70) (human, UniProt P32970 1-193).
T1 construct: whole, on cells
T1 sequence (looked up): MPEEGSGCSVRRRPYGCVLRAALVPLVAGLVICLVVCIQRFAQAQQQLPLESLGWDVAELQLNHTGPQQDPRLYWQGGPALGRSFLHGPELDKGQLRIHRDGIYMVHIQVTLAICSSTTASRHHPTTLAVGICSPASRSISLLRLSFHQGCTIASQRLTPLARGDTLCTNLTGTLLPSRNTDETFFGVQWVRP
As to the kind of experiment: flow cytometry: percentage of positive cells, 786-O cells stained with the sdAb-Fc protein at varied concentration.

The target of test [2] is T2, recombinant human CD70 protein (Acrobiosystems: CDL-H82Q9) (human, UniProt P32970 39-193).
T2 construct: Bought from Acrobiosystems; The whole natural entry is named; also called human CD70His fusion protein; recombinant human CD70 antigen having a C-terminal human IgG Fc tag
T2 sequence (looked up): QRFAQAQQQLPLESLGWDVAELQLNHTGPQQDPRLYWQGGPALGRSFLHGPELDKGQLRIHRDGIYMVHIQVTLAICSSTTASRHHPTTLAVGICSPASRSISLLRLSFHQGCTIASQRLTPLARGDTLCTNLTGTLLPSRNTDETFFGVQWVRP
Kind of test: SPR, Biacore T200, Protein A chip, sdAb-Fc against CD70 protein. An excerpt:
The C-terminus of the amino acid sequences of CD70-sdAb-1E, CD70-sdAb-1G, CD70-sdAb-3H and CD70-sdAb-L2 were respectively linked to a human Fc domain (as shown in SEQ ID NO: 94), and these 4 proteins fused with Fc were expressed in HEK293 cells. After purification, the affinity of these 4 sdAb-Fc to CD70 protein (ACRO Biosystems, CDL-H82Q9) was detected using Biacore T200 (GE) and Protein A chip (GE, Cat#29127556).

In test [3] the target is T1, CD70 on kidney cancer cell line 786-0 …. Kind of test: flow cytometry: percentage of positive cells, 786-O cells stained with the sdAb-Fc protein at varied concentration. The source holds these as a separate data set.
For test [4] the target is unchanged. The description is as above. The source holds these as a separate data set.
The target is the same in test [5]. The description is as above. This is another data set of the same source.

B1: sdAb-Fc of CD70-sdAb-L2 (CD70-sdAb-L2 linked at its C-terminus to a human Fc domain) (Fc fusion)
chain: EVQLVESGGGLVQAGGSLRLSCAASGFTVDDYVIGWFRQAPGKEHEGVSCISSNDGSTWYADSVKGRFTISSDNAKNTMYLQMNSLKPEDTAVYYCAAKYAPYGLEYWEGGMDYWGKGTLVTVSS[human IgG1 Fc with changes not listed]
notes: Expressed in HEK293 cells and purified; No linker between VHH and Fc is mentioned
The molecule B1 showed an EC50 in test [1] of 11.7 µg/mL. Besides, in test [2], the Kd stood at 976 pM.

B2: sdAb-Fc of CD70-sdAb-3H (CD70-sdAb-3H linked at its C-terminus to a human Fc domain) (Fc fusion)
chain: QLQLVESGGGLVQPGGSLRLSCAASGNILRFNAVGWYRQAPGKQRDLVAAMAGARTNYADSVEGRFTISGNNANNTVYLQMNSLKPEDTGVYYCGADRVYGPPYEYGGRGTQVTVLS[human IgG1 Fc with changes not listed]
notes: as for B1
Take B2: the EC50 in test [3] was 10.8 µg/mL. In addition, the Kd in test [2] stood at 300 pM.

B3: sdAb-Fc of CD70-sdAb-1G (CD70-sdAb-1G linked at its C-terminus to a human Fc domain) (Fc fusion)
chain: QLQLVESGGGLVQLGGSLTLSCTASGIIFNSDYVGWYRQAPGSDRELVALTSNMRTNYADSVEGRFTISRDNAKNTVYLQMNSLKPEDTAVYYCNVNRMTSYGPRDYWGQGTQVTVSS[human IgG1 Fc with changes not listed]
notes: as for B1
In test [4], B3 returned an EC50 of 5.7 µg/mL. Moreover, the Kd in test [2] turned out to be 265 pM.

B4: sdAb-Fc of CD70-sdAb-1E (CD70-sdAb-1E linked at its C-terminus to a human Fc domain) (Fc fusion)
chain: EVQVVESGGGLVQAGGSLRLSCAASGFAFDDYAIGWFRQAPGKEQERVSCMSSSDGSTYYADSVKGRFTISSDNAKNTVYLQMNSLKPEDTAVYYCAAGVNYYREDGCPGALDYWGQGTQVTVSS[human IgG1 Fc with changes not listed]
notes: as for B1
Regarding B4, the EC50 in test [5] is 14.1 µg/mL. In test [2], the Kd came out at 168 pM.
